According to PubChem BioAssay AID686978 (National Center for Advancing Translational Sciences (NCATS), 2013):
Where “and” joins values, the source holds several entries; their conditions need not be identical. Equal values may be shown once. The whole screen tested about 420,000 compounds, of which about 64,000 (15%) were called active. The shares of active, inactive and inconclusive entries below differ from those in the screen. Calls come from the whole dose curve; as a rule, active = well fitted inhibition curve with a large enough effect; inconclusive = small, poorly fitted or top-dose-only effect; inactive = flat fitted curve, though single readings scatter. Where the call is inconclusive, the potency comes from a doubtful curve fit.

Assay: qHTS for Inhibitors of human tyrosyl-DNA phosphodiesterase 1 (TDP1): qHTS in cells in absence of CPT; note: nearly all actives have a fitted effect of over 55% in size
Settings: DT40 Tdp1-/- hTDP1 cells, no CPT, ATP luminescence, 48 h; activity change, negative = growth inhibition: at 46.2 µM (top of the series)
Procedure, shortened: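 DT40 Tdp1-/-;hTDP1 cells, no CPT (DMSO vehicle only), 400 cells/well; compounds pin-transferred; ≥48 hr, 37 °C; CellTiter-Glo 30 min RT dark, luminescence read.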
% is set by controls: 0 for no effect and ±100 for the full control effect; potency is the fitted concentration of half-maximal effect; tags give direction and shape of the fitted curve.

Compound | Potency | activity change, negative = growth inhibition
S=C1NC2(CCCCCC2)N=C1c1ccccc1 | inconclusive: 9.2 µM [inhibitor, partial curve, poor fit] | 
CS(=O)(=O)N1CCN(c2ccccc2NC(=S)NC(=O)c2ccco2)CC1 | inconclusive: 20.6 µM [inhibitor, single point] | 
CSc1nnc(C)c(=O)n1COC(=O)c1cc(Cl)ccc1[N+](=O)[O-] | inactive | 
CN(C)CCCN(C(=O)c1ccc2ccccc2c1)c1nc2cc3c(cc2s1)OCO3 | inconclusive: 23.1 µM [inhibitor, single point] | 
CCOC(=O)c1c(NC(=O)COC(=O)C2CC2C)sc(C)c1C (configuration not stated) | inconclusive: 25.9 µM [inhibitor, single point] | 
Clc1ccc(-c2c[n+](Cc3ccc(Cl)cc3Cl)c3n2CCCCC3)cc1 | active: 1.16 µM | 
COc1ccccc1NC(=O)CSc1nnc2c(n1)[nH]c1ccccc12 | inconclusive: 6.51 µM [inhibitor, partial curve] | 
Cc1cccn2c(=O)c3cc(C(=O)NCc4ccco4)c(=N)n(C4CCCCC4)c3nc12 | inconclusive: 29.1 µM [inhibitor, single point] | 
COc1ccc(CCn2c(-c3ccco3)nc3ccccc3c2=O)cc1OC | active: 2.59 µM | 
OCCCNc1nccc(-c2cc(Nc3cccc(Cl)c3)ncn2)n1 | active: 0.731 µM | 
CCOc1ccccc1NC(=O)C(OC(=O)c1ccc(NC(=O)CC#N)cc1)c1ccccc1 (configuration not stated) | inconclusive: 18.4 µM [inhibitor, partial curve] | 
O=C(CN1C(=O)CCc2cc(Br)ccc21)Nc1ccc(OC(F)(F)F)cc1 | inactive | 
O=C1CNc2ccc(C(=O)N3CCN(c4ccccn4)CC3)cc2N1 | inconclusive: 29.1 µM [inhibitor, single point] | 
CCCC(=O)N1CCC1(C)C(=O)Nc1ccccc1-c1ccccc1 (configuration not stated) | inactive | 
O=C(CN(Cc1ccc(F)cc1)C(=O)CNS(=O)(=O)c1ccc(Cl)cc1)NCC1CCCO1 (configuration not stated) | inactive | 
Cc1ccc(-n2nnnc2SCn2nnc3ccccc3c2=O)c(C)c1 | active: 8.2 µM | 
O=C(NC(=S)N1CCN(c2ccc(Cl)cc2[N+](=O)[O-])CC1)c1ccco1 | inconclusive: 29.1 µM [inhibitor, single point] | 
CN(CC(=O)Nc1ccc(Cl)c(C(F)(F)F)c1)C(=O)c1ccc(N2CCOCC2)c([N+](=O)[O-])c1 | active: 25.9 µM | 
Cc1ccc(-c2nnc(COC(=O)c3cccs3)o2)cc1 | inactive | 
COc1ccccc1NC(=O)CCc1nc2ccccc2s1 | inconclusive: 20.6 µM [inhibitor, single point] | 
COc1ccc(OC)c(/C=C/c2c3ccccc3cc[n+]2C)c1 | active: 1.41 µM | 
O=C(CN1CCN(C2CCCCC2)CC1)c1c[nH]c2ccccc12 | inactive | 
O=C(CSc1nc2c(sc3ccccc32)c(=O)n1CCc1ccccc1)NCc1ccco1 | inconclusive: 23.1 µM [inhibitor, single point] | 
COc1cccc(CNC(=O)c2nn(C)c3c2CSc2ccccc2-3)c1 | inconclusive: 23.1 µM [inhibitor, single point] | 

Compound | Potency | activity change, negative = growth inhibition
CNc1ccc(Br)cc(C(=O)/C=C/c2cccc(Cl)c2Cl)c1=O | active: 16.4 µM | 
O=C(Nc1cccc(C(F)(F)F)c1)c1csc([C@H]2C[C@H](O)[C@@H](CO)O2)n1 | inconclusive: 25.9 µM [inhibitor, single point] | 
COc1ccc(-n2nc(C(=O)NCc3ccco3)c3c4ccccc4n(C)c3c2=O)cc1Cl | active: 10.3 µM | 
COc1ccc(CSc2nc3ccccc3c(=O)[nH]2)cc1F | inconclusive: 20.6 µM [inhibitor, single point] | 
O=C(O)c1cc([N+](=O)[O-])ccc1Oc1ccccc1 | inactive | 
COCCCN(C(=O)CCSc1ccc(F)cc1)c1c(N)n(Cc2ccccc2)c(=O)[nH]c1=O | inactive | 
CC1(C)CC(=O)C=C(NCCN2CCNCC2)C1 | inactive | 
CC(C)(C)OC(=O)N1CCC(c2c(C(=O)NCc3ccccc3)cnn2-c2ccccc2)CC1 | inconclusive: 20.6 µM [inhibitor, single point] | 
COc1ccc2nc(N(CCN(C)C)C(=O)c3ccc4c(c3)OCCO4)sc2c1 | inactive | 
COCC(=O)N(Cc1cc2cc(OC)ccc2[nH]c1=O)c1ccc(C)cc1 | inconclusive: 23.1 µM [inhibitor, single point] | 
CC1CCC(N(C)C(=O)CN2C(=O)NC(c3ccccc3)(c3ccccc3)C2=O)CC1 (configuration not stated) | inconclusive: 18.4 µM [inhibitor, single point] | 
CC1CCC(NC(=O)c2ccc3c(c2)N(Cc2ccccc2)C(=O)c2ccccc2S3(=O)=O)CC1 (configuration not stated) | inactive | 
CN(C)CCN(Cc1ccccc1)C(c1cc2ccccc2o1)c1nnnn1C(C)(C)C (configuration not stated) | inconclusive: 16.4 µM [inhibitor, single point] | 
Cc1ccc(-c2nc(CN(CC3CCC3)CC3CCCO3)c(C)o2)s1 (configuration not stated) | inconclusive: 29.1 µM [inhibitor, single point] | 
COCCCNC(=O)CN(c1ccc(F)cc1)S(=O)(=O)c1ccc2c(c1)OCCO2 | inactive | 
COc1ccc(-c2[nH]ncc2CN(C)Cc2nonc2C)c(OC)c1 | inactive | 
Cc1cccc(Nc2c(-c3cccs3)nc3nc(C)cc(C)n23)c1 | inconclusive: 29.1 µM [inhibitor, single point] | 
C#CCn1c(=NC(=O)c2ccco2)sc2cccc(Cl)c21 | inactive | 
COC(=O)CCCC1=CC2=C(c3ccccc3)C(=O)C(C)(OC(=O)C3CCCC3)C(=O)C2=CN1CCc1c[nH]c2ccccc12 (configuration not stated) | inconclusive: 29.1 µM [inhibitor, single point] | 
Cc1noc(C)c1COc1ccc(C(=O)NNC(=O)c2ccccc2)cc1 | active: 4.61 µM | 
CCc1nc2c(OCc3c(C)noc3C)cccn2c1N(C=O)Cc1ccc(OC)cc1 | active: 14.6 µM | 
CC(C)(C)NC(=O)NC(=O)COC(=O)Cc1ccc(Cl)cc1Cl | inactive | 
CN(c1ccccc1C(=O)N1CCN(Cc2ccc3c(c2)OCO3)CC1)S(C)(=O)=O | inactive | 
Cc1cccc(OC2(c3ccccc3)OC(=O)c3ccccc32)c1C (configuration not stated) | inconclusive: 18.4 µM [inhibitor, single point] | 

Compound | Potency | activity change, negative = growth inhibition
CCOc1ccccc1CNC(=O)CN1C(=O)CSc2ccc(S(=O)(=O)N3CCOCC3)cc21 | inactive and inconclusive: 20.6 µM [inhibitor, single point] | 
CCOc1ccccc1C(=O)NCCN1CCC(n2c(=O)[nH]c3ccccc32)CC1 | active: 29.1 µM | 
CC1CN(C(=O)c2cccc(Oc3ccccc3)c2)CC(C)O1 (configuration not stated) |  | inconclusive: -30.1% [inhibitor]
CCc1ccc(-c2cc(C(=O)Nn3cnnc3)c3ccccc3n2)cc1 | active: 13 µM | 
COc1ccccc1CNc1nc(NCCNC(C)=O)c2sccc2n1 | inconclusive: 18.4 µM [inhibitor, single point] | 
Cc1ccccc1CN1Cc2cccc3c2[C@H](C=CC3)CC1=O | active: 10 µM | 
COc1ccc(Nc2nc(NCC3CCCO3)c3ccccc3n2)c(OC)c1 (configuration not stated) | active: 14.6 µM | 
O=C(NCCN1CCOCC1)c1ccc(/C=C2\Sc3ccccc3N(Cc3ccccc3F)C2=O)cc1 | inconclusive: 18.4 µM [inhibitor, single point] | 
COc1ccc(OC)c(NC(=O)Cn2c(=O)n(CC3CCCO3)c(=O)c3cc(OC)c(OC)cc32)c1 (configuration not stated) | inactive | 
COc1ccc(C(CNC(=O)CSc2ccccc2C)N(C)C)cc1 (configuration not stated) | inconclusive: 29.1 µM [inhibitor, single point] | 
Cc1c(NC2=NC3(CCCCC3)Cc3ccccc32)c(=O)n(-c2ccccc2)n1C | inconclusive: 0.651 µM [inhibitor, partial curve, poor fit] | 
CCCCCn1c(=O)[nH]c2cc(C(=O)NCCN3CCC(C)CC3)ccc2c1=O | inconclusive: 20.6 µM [inhibitor, single point] | 
COc1ccc(NC(=O)CN(C)S(=O)(=O)c2ccc3c(c2)CCC(=O)N3)c(OC)c1 | inactive | 
O=C(c1ccc2c(c1)CCN2S(=O)(=O)c1ccccc1)N1CCN(c2cccc(Cl)c2)CC1 | inconclusive: 29.1 µM [inhibitor, single point] | 
CCOC(=O)CNc1nc2ccccc2n2c(C)nnc12 | inconclusive: 25.9 µM [inhibitor, single point] | 
COc1cccc(/C=N/n2c(COc3ccccc3)n[nH]c2=S)c1OC | inactive | 
O=C(Nc1nnc(-c2ccc(F)cc2)o1)c1cccc([N+](=O)[O-])c1 | active: 3.26 µM | 
Cc1ccc(CNC(=O)c2cnc(N3CCCCC3)c3ccccc23)cc1 | active: 16.4 µM | 
CCc1ccc(NC(=O)CSc2nc3c(sc4ccccc43)c(=O)n2CCCOC)cc1 | inconclusive: 6.51 µM [inhibitor, single point] | 
COc1ccc(-c2csc(C(O)(c3ccccc3)C(F)(F)F)n2)cn1 (configuration not stated) | inconclusive: 23.1 µM [inhibitor, single point] | 
CC(C)C(NC(=O)c1ccco1)C(=O)OCc1cc([N+](=O)[O-])cc2c1OCOC2 (configuration not stated) | inconclusive: 18.4 µM [inhibitor, single point] | 
COc1ccc(OC)c(-c2cc(Cl)c3c(c2)CC(CNC(=O)C(C)N2CCOCC2)O3)c1 (configuration not stated) | inconclusive: 16.4 µM [inhibitor, single point] | 
O=C(c1ccco1)N1CCC2(CC1)CCN(c1ccc(-c3ccccc3)cc1)CC2 | inactive | 
O=C(CSc1ccc2nnc(-c3cccnc3)n2n1)Nc1ccccc1C(F)(F)F | inactive | 
